From PubChem BioAssay (NCATS) come the findings set out here.

This is one part of the list. Further columns of the screen follow, without active or inactive calls. Compounds called inactive in the main read-out are mostly missing here. The note in brackets gives the kind of curve behind each potency; many fits are weak.

The assay can be described thus: qHTS Assay for Lipid Storage Modulators (AID 1519). Particulars: Drosophila S3 cells, BODIPY lipid droplet/cell ratio, laser cytometry, cells loaded with oleic acid. An outline of the steps:
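Cells seeded at 5,000 per well were treated with compounds over a concentration series and loaded with oleic acid (400 uM, as added). Lipid droplet fluorescence (488 nm excitation, 500-530 nm channel) was read by laser-scanning cytometry and normalized to 20 uM Triacsin C.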

The mark [1] stands for this setting: measured here: cell count channel max response.
[2] abbreviates: measured here: lipid (BODIPY) channel AC50.
Where [3] appears, read: measured here: lipid channel max response.
The mark [4] stands for this setting: measured here: cell number channel AC50.
Tags tell the direction and shape of the fitted curve.

The AC50 is the concentration giving half of the maximal activity seen. Turning to `Nc1ccc(S(=O)(=O)Nc2ncccn2)cc1`, the max response by setting is: under setting [1], 15.2%; under setting [3], 25.8%. Besides, under setting [2], the half-maximal activity concentration (AC50) was 0.0398 µM [rising, full curve, poor fit].

For the molecule `N#CCCn1c(=O)c(-c2ccc(F)cc2)nc2cnc(Oc3cccc(Cl)c3)nc21`, the max response reads like this: under setting [1], 15.8%; under setting [3], 21.3%. Also, the AC50 under setting [2] was 0.562 µM [rising, partial curve, poor fit].

Take `CN(C)c1ncc2nc(-c3ccc(Cl)cc3)c(=O)n(-c3ccccc3)c2n1`: the max response reads like this: under setting [1], 24.7%; under setting [3], 32%. Besides, the AC50 under setting [2] was 2.82 µM [rising, full curve, poor fit].

For the molecule `O=C(c1ccncc1)N1CCC2(CCCN(c3ccc(-c4ccccc4)cc3)C2)CC1`, the max response stood at 12.7% under setting [1] and 16.1% under setting [3]. In addition, the AC50 under setting [2] was 3.98 µM [rising, partial curve, poor fit].

In the case of `CO/N=C(/C(=O)N[C@H]1C(=O)N2C(C(=O)O)=C(COC(C)=O)CSC12)c1csc(N)n1` (stereo not given in full), the max response under setting [1] is 22.9% and the max response under setting [3] amounted to 36.9%. Besides, the AC50 under setting [2] is 31.6 µM [rising, single point].

As to `COc1ccc2cc(C(C)C(=O)O)ccc2c1` (stereo not given), the max response is, setting by setting: under setting [1], 37.8%; under setting [3], 67%. Moreover, under setting [2], the AC50 was 39.8 µM [rising, single point].

For `CCc1ccc(CCOc2ccc(CC3SC(=O)NC3=O)cc2)nc1` (stereo not given), the max response came to 25.6% under setting [1] and 38.9% under setting [3]. In addition, the AC50 under setting [2] was 28.2 µM [rising, single point].

Consider `COc1ccc(-n2c(=O)c(-c3cc(F)cc(F)c3)nc3cnc(N4CCNCC4)nc32)cc1`, for which the max response under setting [1] is 15.2% and the max response under setting [3] came to 15.5%. Besides, under setting [2], the AC50 was 0.1 µM [rising, full curve, poor fit].

Turning to `NC(=O)c1ncn([C@@H]2O[C@H](CO)[C@@H](O)[C@H]2O)c1O`, the max response was 42.8% under setting [1] and 46.8% under setting [3]. Further, the half-maximal activity concentration (AC50) under setting [2] was 44.7 µM [rising, single point].

For `CCNc1ncc2ncc(=O)n(Cc3ccc(F)cc3)c2n1`, the max response by setting is: under setting [1], 17.6%; under setting [3], 11.6%. For the same molecule, under setting [2], the half-maximal activity concentration (AC50) was 2.24 µM [rising, partial curve, poor fit].

As for `CN(C)C(=O)c1ccc(-c2cc(NCc3cccs3)ncn2)cc1`, the max response was 26.3% under setting [1] and 36.2% under setting [3]. Moreover, the AC50 under setting [2] was 4.47 µM [rising, partial curve].

In the case of `c1ccc2cc(C3=NCCN3)ncc2c1`, the max response turned out to be 28.7% under setting [1] and 39.4% under setting [3]. For the same molecule, the AC50 under setting [2] was 14.1 µM [rising, partial curve, poor fit].

On to `Cn1cccc1C(=O)N1CCC[C@@]2(CCN(c3cccc(-c4ccccc4)c3)C2)C1`, for which the max response runs as follows: under setting [1], -7.99%; under setting [3], -32.9%. Also, the half-maximal activity concentration (AC50) under setting [2] was 5.01 µM [rising, single point].

Turning to `O=c1c(CCc2ccccc2)nc2cncnc2n1Cc1ccccc1Cl`, the max response is 23.6% under setting [1] and 34.6% under setting [3]. For the same molecule, the AC50 under setting [2] was 0.891 µM [rising, full curve, poor fit].

With `C=C1C(=O)OC2C[C@@]3(C)CCCC(C)C3=CC12` (stereo not given in full), the max response was 30.5% under setting [1] and -24.4% under setting [3]. In addition, the AC50 under setting [4] is 39.8 µM [rising, single point].

In the case of `CCNc1ncc2nc(-c3ccc(Cl)cc3)c(=O)n(C3CC3)c2n1`, the max response is, setting by setting: under setting [1], 16.7%; under setting [3], 18.4%. The AC50 under setting [2] is 0.0562 µM [rising, full curve].

With `O=c1c(O)c(-c2ccccc2)oc2ccc3occc3c12`, the max response is, setting by setting: under setting [1], 29.3%; under setting [3], 41%. Moreover, the AC50 under setting [2] was 0.01 µM [rising, full curve, poor fit].

With `CCNc1ncc2nc(-c3cc(F)cc(F)c3)c(=O)n(CCc3ccccc3)c2n1`, the max response reads like this: under setting [1], -12.1%; under setting [3], -104%. For the same molecule, the half-maximal activity concentration (AC50) under setting [4] is 0.398 µM [rising, full curve, poor fit].

For `CNc1ncncc1-c1ccccc1C`, the max response runs as follows: under setting [1], 28%; under setting [3], 35.1%. The AC50 under setting [2] was 5.01 µM [rising, partial curve, poor fit].

Take `CN1CCN(c2ncc3nc(CCc4ccccc4)c(=O)n(Cc4cccs4)c3n2)CC1`: the max response under setting [1] was determined as 10.9% and the max response under setting [3] was found to be 15.2%. The AC50 under setting [2] was 0.0251 µM [rising, full curve, poor fit].

`COc1ccc(CNc2ncnc3ccc(-c4c(C)noc4C)cc23)c(OC)c1`: the max response under setting [1] amounted to 17.6% and the max response under setting [3] was 11.3%. In addition, the AC50 under setting [2] was 3.16 µM [rising, partial curve, poor fit].

On to `O=c1c(-c2cccc(F)c2)nc2cncnc2n1C1CC1`, for which the max response runs as follows: under setting [1], 29.2%; under setting [3], 43.4%. Besides, the AC50 reads like this: under setting [4], 3.55 µM [rising, partial curve, poor fit]; under setting [2], 2 µM [rising, partial curve, poor fit].

Regarding `CN(C)C(=O)c1ccc(-c2ccc3ncnc(Nc4ccc(F)cc4)c3c2)cc1`, the max response under setting [1] was determined as 14.6% and the max response under setting [3] turned out to be 23.2%. The AC50 was 3.16 µM [rising, partial curve] under setting [4] and 3.98 µM [rising, partial curve] under setting [2].

Turning to `CC(C)c1ccc2c(c1)CC[C@@H]1[C@@](C)(CN)CCC[C@]21C`, the max response reads like this: under setting [1], 6.87%; under setting [3], 14.7%. Besides, the AC50 is, setting by setting: under setting [4], 0.01 µM [falling, full curve, poor fit]; under setting [2], 0.00224 µM [falling, full curve, poor fit].
